Data on one molecule can be found in publication PMC8304084, “A Concerted Action of UBA5 C-Terminal Unstructured Regions Is Important for Transfer of Activated UFM1 to UFC1” (International Journal of Molecular Sciences, 2021).

Assay in all cases: ITC; VP-ITC, 25 °C; UBA5 peptides (~400 µM) titrated into 20–25 µM binding partner; 25 mM HEPES pH 7.5, 100 mM NaCl; one-site model; a single profile for each interaction
What all share (details): both partners purified
On the technique in general: In ITC the heat of successive injections is recorded.

Test [1] addresses T1, GABARAPL2, residues 3–116 (UniProt P60520).
T1 construct: N-terminal cloning artefact left after TEV cleavage (vector pET39_Ub19); source: E. coli T7 Express, purified (His Trap IMAC, TEV cleavage, reverse IMAC, Superdex gel filtration); not shown: modified ubiquitin tag (Ub19), N-terminal, cleaved
T1 sequence (P60520 other isoform, or with tags, fused parts or gaps): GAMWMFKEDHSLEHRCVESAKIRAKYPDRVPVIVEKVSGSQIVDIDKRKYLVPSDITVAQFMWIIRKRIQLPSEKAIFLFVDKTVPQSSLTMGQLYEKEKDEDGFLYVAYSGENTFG

Test [2] concerns the target LC3B, residues 5–120 (UniProt Q9GZQ8).
For test [3], the target named is T2, Full length UFM1, residues 2–83 (UniProt P61960).
T2 construct: N-terminal cloning artefact left after TEV cleavage (vector pET39_Ub19); UFM1 (ubiquitin fold modifier 1), residues 2–83 (processed form ending at Gly83); also called Ubiquitin fold modifier 1; source: E. coli T7 Express, purified (His Trap IMAC, TEV cleavage, reverse IMAC, Superdex gel filtration); not shown: modified ubiquitin tag (Ub19), N-terminal, cleaved
T2 sequence (P61960 other isoform, or with tags, fused parts or gaps): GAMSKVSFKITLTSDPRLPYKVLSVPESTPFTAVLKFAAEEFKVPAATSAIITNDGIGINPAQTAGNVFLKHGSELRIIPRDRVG

What is called Kd is the concentration at which binding is half-saturated. High values mean lower affinity, low ones higher affinity. What is called stoichiometry N is a count of units in the complex or per binding partner.

B1: UBA5 C-terminal part with A371E mutant ([…]) (domain or fragment)
chain: not shown
notes: N-terminal cloning artefact left after TEV cleavage (vector pET39_Ub19); source: E. coli T7 Express, purified (His Trap IMAC, TEV cleavage, reverse IMAC, Superdex gel filtration); not shown: modified ubiquitin tag (Ub19), N-terminal, cleaved
Take B1: in test [1], the Ka is 1.96e+07 M⁻¹, the equilibrium dissociation constant (Kd) is 60 nM, the dH was -7.79 kcal/mol and the “stoichiometry N” value was 1.01. For the same molecule, in test [2], the Ka amounted to 1.66e+06 M⁻¹, the Kd was 600 nM, the dH is -3.93 kcal/mol and the “stoichiometry N” value turned out to be 0.944. Moreover, in test [3], the Ka was 110000 M⁻¹, the Kd was 9200 nM, the dH is -11.4 kcal/mol and the “stoichiometry N” value amounted to 1.01.
